Measured values reported in the supplement of paper PMC3334620.
Whole data set: some 33,000 sequences, median “E-score (-0.5 to 0.5)” near -0.032, cut for the highest 2% near 0.36. Some of the results follow.

target: T1, Sko1 (UniProt Q02100); test: PBM E-score (8-mer binding enrichment) (E-score (-0.5 to 0.5)); higher = stronger / more preferred TF binding; most listed sequences are background and not binding sites; details: protein concentration: 200 nM; construct: GST-full length
T1 sequence: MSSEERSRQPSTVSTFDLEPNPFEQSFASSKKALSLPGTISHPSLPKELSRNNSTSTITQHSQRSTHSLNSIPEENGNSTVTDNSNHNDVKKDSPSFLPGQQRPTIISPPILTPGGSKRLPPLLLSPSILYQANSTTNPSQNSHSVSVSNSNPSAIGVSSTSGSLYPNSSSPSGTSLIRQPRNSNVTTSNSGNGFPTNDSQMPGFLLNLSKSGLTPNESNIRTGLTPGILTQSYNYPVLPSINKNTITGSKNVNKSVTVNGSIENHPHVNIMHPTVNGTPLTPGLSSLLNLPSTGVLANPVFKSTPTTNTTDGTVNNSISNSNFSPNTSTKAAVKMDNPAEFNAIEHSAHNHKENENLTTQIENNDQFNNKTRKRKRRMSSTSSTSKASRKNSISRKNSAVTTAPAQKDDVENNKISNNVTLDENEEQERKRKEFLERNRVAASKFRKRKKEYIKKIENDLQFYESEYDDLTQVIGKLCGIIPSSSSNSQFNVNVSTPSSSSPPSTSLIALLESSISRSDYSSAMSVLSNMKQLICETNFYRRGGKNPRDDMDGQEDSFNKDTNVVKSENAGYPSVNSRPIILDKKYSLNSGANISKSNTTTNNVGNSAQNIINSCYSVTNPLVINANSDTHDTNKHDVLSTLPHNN
How it was run: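 The E-score, a modified Wilcoxon-Mann-Whitney statistic, was computed by the Universal PBM Analysis Suite for every ungapped eight-base word pooled with its reverse complement. Scans behind it were normalised with masliner after bound GST-tagged yeast transcription factors were detected with fluorescent anti-GST. The proteins, at about 100-200 nM, had been applied to universal all-10-mer Agilent arrays made double-stranded by primer extension.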

| Sequence | PBM E-score |
| --- | --- |
| ACATTGTC | 0.178 |
| CGAGTCCC | -0.239 |
| GTTTAAGA | -0.0752 |
| ACGCAGAA | 0.241 |
| ACAATTGA | 0.129 |
| ACCGCAGC | -0.279 |
| CTCTCAGC | -0.107 |
| AGTTTGAA | 0.148 |
| CCCGCTCG | -0.16 |
| CCACGGGC | -0.37 |
| AGATTAAC | 0.132 |
| ATACCAGG | -0.146 |
| ATAGTACG | 0.264 |
| ATTGGACA | -0.0669 |
| CAATGATC | 0.0721 |
| CATCGATG | 0.0694 |
| AAGCCAAG | -0.265 |
| GGGCTACC | -0.198 |
| CTGCGACA | 0.0631 |
| CACACGGA | -0.167 |
| AGCATGCA | -0.0156 |
| AGACACCT | -0.236 |
| CACTAATA | 0.169 |
| CTCAAGAG | -0.332 |
| AGCTCTAA | -0.0484 |

| Sequence | PBM E-score |
| --- | --- |
| ATATTGTA | 0.166 |
| CCTTACCG | -0.0732 |
| ATGTAGAC | 0.139 |
| GTATTGTA | 0.255 |
| TAGGATGA | 0.136 |
| ATAGTTAG | -0.0178 |
| CGGTGGAC | -0.274 |
| GATCGATC | 0.00803 |
| CACTCGAG | -0.2 |
| GATGTGAC | 0.119 |
| CCTCCTCC | -0.216 |
| CCTGGAGA | -0.00886 |
| GACATGGA | 0.0301 |
| CAACTACA | 0.084 |
| CCCTGGGA | -0.299 |
| ATGTACCA | 0.159 |
| GCCAGCCA | -0.129 |
| TAATGTAA | 0.224 |
| AGCAGCCA | -0.0298 |
| AGAAACCC | -0.16 |
| CCCTGAAG | -0.257 |
| GACTTGAA | -0.169 |
| AGAAAGCC | 0.108 |
| CGTTCTAC | -0.0542 |
| ACCCGCGG | -0.0735 |

| Sequence | PBM E-score |
| --- | --- |
| CTCTCCTC | -0.309 |
| GCTTACAA | 0.1 |
| AGCCTCGA | -0.204 |
| AAAGGGAT | -0.115 |
| AGTCACCG | -0.0759 |
| CAAGAAAA | 0.177 |
| CAATGGAG | -0.202 |
| TACCCGCA | -0.0911 |
| CTCGGGCA | -0.129 |
| CTTAGTGA | 0.0175 |
| AGACCATA | 0.0157 |
| CGAGCCGA | -0.218 |
| ATGACTCC | -0.00531 |
| GGTACCCA | -0.0882 |
| AAGGGCCG | -0.147 |
| AACATGCC | -0.18 |
| ATTACCAA | 0.175 |
| CCGCTACA | -0.291 |
| GCAAGTCC | -0.271 |
| AAACAGAC | 0.156 |
| GGTGAATA | -0.0192 |
| ACGGACTA | 0.0518 |
| CCGTCGCC | -0.234 |
| ATCTGATC | 0.0583 |
| CGCTTAAG | 0.0271 |

| Sequence | PBM E-score |
| --- | --- |
| TAACCGAA | -0.219 |
| AACGTTCA | 0.0648 |
| ATCAAAAT | 0.136 |
| GGTAGGAA | -0.141 |
| CATGCGTA | 0.38 |
| AGGGCATC | -0.137 |
| AATACTAA | 0.206 |
| CCAAGAAA | 0.094 |
| TGCACGCA | 0.193 |
| CATCCAGG | -0.301 |
| GGAACCAC | -0.0513 |
| AGCGTATA | 0.15 |
| AAGCCGGC | -0.221 |
| ATATACTC | -0.043 |
| CACTATAA | 0.00593 |
| ACGCAGCT | 0.204 |
| AGCAATTG | 0.155 |
| CCAAGGTC | -0.112 |
| GCGGTCTA | 0.0211 |
| AAATCCGA | -0.0131 |
| CGTGGTAG | -0.0615 |
| GTGACCTA | 0.188 |
| CGCTGATC | -0.199 |
| CCCCATAC | 0.0384 |
| CCTTGTAC | -0.131 |

| Sequence | PBM E-score |
| --- | --- |
| AGCTCAGG | 0.0455 |
| AGTTTTGG | -0.0638 |
| CCAACGGA | -0.209 |
| AACGATCT | -0.0442 |
| ATACAGGA | 0.00041 |
| GCTACTCA | 0.00698 |
| AGCGCACT | -0.177 |
| ACCATCGG | -0.172 |
| ACCGCGTA | 0.228 |
| CTCAACTC | -0.016 |
| AGAAACTC | 0.0471 |
| CCGGTCAC | -0.178 |
| AGGGACCA | -0.151 |
| AGTCTACC | -0.199 |
| ACTGTTAG | -0.116 |
| GCTCCGCC | -0.256 |
| ACGTTCGG | 0.0529 |
| GCACGAGC | -0.179 |
| GCATAGAC | -0.0955 |
| AGAAACAT | 0.152 |
| CACTAACC | -0.0646 |
| GACACCCC | -0.0731 |
| AGGACAGC | -0.144 |
| CGAAGTGA | 0.0979 |
| ACAAGTGA | 0.109 |

| Sequence | PBM E-score |
| --- | --- |
| ATGAGCAA | 0.0476 |
| AAGACGAT | 0.25 |
| GCGTACTA | 0.232 |
| AGCGCGCC | -0.14 |
| AAAGGTAC | -0.0964 |
| AATCGATG | 0.255 |
| CATGTCAC | 0.249 |
| ATACTGAG | 0.0933 |
| TCCCCCGA | -0.431 |
| CCAAAATA | 0.057 |
| ATGCGAAG | 0.0576 |
| ATCCGAGG | -0.0521 |
| AGGTTGCA | 0.0863 |
| CAGGCCAG | -0.289 |
| CCAGGAGG | -0.234 |
| GATGGTTA | 0.107 |
| CAGACAAG | -0.15 |
| AAATCGAA | 0.0851 |
| ATTAGAAG | 0.0144 |
| CAACAGAA | -0.0413 |
| CTAAATGC | 0.084 |
| GGGGGAAA | -0.261 |
| AAAGGGAA | -0.21 |
| AACGAATG | 0.162 |
| CAGTATAC | 0.0943 |

| Sequence | PBM E-score |
| --- | --- |
| CGGGGTTC | -0.253 |
| CAAATACG | 0.319 |
| ATTCAGCA | 0.00168 |
| CAAAGAGC | -0.157 |
| GGAGCCCC | -0.196 |
| CTTTTCAA | 0.0353 |
| GAAAATAC | 0.142 |
| CGCCGAGC | -0.134 |
| CCTTGTGC | -0.31 |
| GAGGTTAC | 0.0947 |
| TGCCCCAA | -0.161 |
| CGTAGACA | 0.264 |
| CCGTAAAG | 0.0256 |
| AAATCATG | 0.00352 |
| CTGGTGGA | -0.185 |
| GGCGCCCA | -0.0348 |
| GGCGGACA | -0.192 |
| ACTCCCCG | -0.144 |
| AATTGCCG | -0.152 |
| GCCAGTTA | 0.0572 |
| CGACCCTA | -0.235 |
| CTTAAATA | -0.0369 |
